Source: PubChem BioAssay AID1030 (National Center for Advancing Translational Sciences (NCATS), 2008)
Screen size: about 220,000 compounds; about 16,000 (7.3%) were called active. Inconclusive results, whose numbers are uncertain, are shown with a selection of clear calls. The call rests on the fitted dose curve; in most records, active means well fitted inhibition curve with a large enough effect (not every such curve was filed as active); inconclusive means small, poorly fitted or top-dose-only effect, or another doubt; inactive means no such curve, though single readings can be large or run the other way. Potencies of inconclusive entries are doubtful fits and often do not repeat.

The compounds below were run against Aldehyde dehydrogenase 1A1 (Homo sapiens) (UniProt P00352) (assay: qHTS Assay for Inhibitors of Aldehyde Dehydrogenase 1 (ALDH1A1)). Conditions: Purified ALDH1A1, NADH fluorescence, propionaldehyde substrate; series mostly up to 75.3 µM; activity, negative = inhibition: at the top concentration.
Potency means the concentration at half of the fitted maximal effect; tags describe the fitted curve by direction and shape.
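Wherever activity, negative = inhibition is given: plate controls were no enzyme wells and a reference inhibitor.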

UniProt P00352, sequence (P00352 whole entry, looked up): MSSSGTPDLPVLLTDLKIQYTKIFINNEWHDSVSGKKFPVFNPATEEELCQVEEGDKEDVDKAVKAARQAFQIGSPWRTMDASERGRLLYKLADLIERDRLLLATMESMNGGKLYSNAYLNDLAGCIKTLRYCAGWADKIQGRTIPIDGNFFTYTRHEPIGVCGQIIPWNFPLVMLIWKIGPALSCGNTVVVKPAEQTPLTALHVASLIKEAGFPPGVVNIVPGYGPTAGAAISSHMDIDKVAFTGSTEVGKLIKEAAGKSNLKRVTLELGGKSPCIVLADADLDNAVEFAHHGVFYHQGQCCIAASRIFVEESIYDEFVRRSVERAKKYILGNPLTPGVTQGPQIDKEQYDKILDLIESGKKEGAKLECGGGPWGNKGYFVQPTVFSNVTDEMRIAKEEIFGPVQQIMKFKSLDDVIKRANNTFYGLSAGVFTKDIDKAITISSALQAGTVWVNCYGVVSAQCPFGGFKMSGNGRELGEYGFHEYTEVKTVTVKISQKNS

Potency, active:
COC(=O)c1ccc(CN2CCN(Cc3ccc(C(=O)OC)o3)CC2)o1 22.4 µM
Cn1cnnc1Sc1ccc(/C=C(\CCC(=O)O)c2nc3ccccc3s2)cc1[N+](=O)[O-] 11.9 µM
CC1(C)CC(=O)C(C=Nc2ccc3c(c2)OCO3)=C(O)C1 12.6 µM
O=S(=O)(c1cnc(Cl)c(Cl)c1)N1CCCc2ccccc21 3.16 µM

Potency, inconclusive:
CC1CCCN(C(=S)NCCc2ccccc2)C1 (stereo unspecified) 44.7 µM [inhibitor, single point]
Cc1cc(=O)oc2cc(OCC(=O)OCC(=O)NC(C)C)ccc12 31.6 µM [inhibitor, partial curve]
CCOC(=O)CSC1=C(C#N)C(c2ccccc2OCC)C(C(=O)OCC)C(=O)N1 (stereo unspecified) 44.7 µM [inhibitor, single point]
Cc1ccc2cc(-c3noc(C4CCCO4)n3)c(=O)[nH]c2c1 (stereo unspecified) 28.2 µM [inhibitor, partial curve]
CCc1cccc(C)c1NC(=S)NCc1ccc2c(c1)cc(C)n2C 20 µM [inhibitor, single point]
CC1CSc2nc3sc4c(c3c(=O)n21)CCCC4 (stereo unspecified) 20 µM [inhibitor, single point]
CCOC(=O)c1c(N)sc(C(=O)N2CCCCC2)c1C 35.5 µM [inhibitor, single point]
CS(=O)(=O)N(CC(O)Cn1c2ccccc2c2ccccc21)c1cccc2ccccc12 (stereo unspecified) 39.8 µM [inhibitor, single point]
O=C(CCCCCN1C(=O)c2cccc3cccc(c23)C1=O)N1CCOCC1 35.5 µM [inhibitor, single point]
CCc1ccc(C(C(=O)NCCOC)N(C(=O)Cn2nnc3ccccc32)c2cccnc2)cc1 (stereo unspecified) 25.1 µM [inhibitor, single point]
O=C(/C=C/c1ccccc1)NC(=S)Nc1ccc(N2CCOCC2)cc1 10 µM [inhibitor, partial curve]
Cc1cccc(Cn2c(N3CCN(c4ccccc4)CC3)nc3c2c(=O)n(C)c(=O)n3C)c1 11.2 µM [inhibitor, partial curve]
Cc1ccc(SC(C)C(=O)Nc2ccc(S(=O)(=O)N3CCOCC3)cc2)cc1 (stereo unspecified) 7.51 µM [inhibitor, full curve, poor fit]
O=C(Nc1ccc(F)cc1)c1sc2cc(C(F)(F)F)cnc2c1-c1cccs1 44.7 µM [inhibitor, single point]
COc1cccc(C2=NOC(C(=O)NC3CCCCC3)C2)c1 (stereo unspecified) 31.6 µM [inhibitor, single point]
CC(=O)Nc1ccc2c(c1)C(=O)N(c1ccc(C)cc1)C2=O 35.5 µM [inhibitor, single point]
COc1ccc(N2C(S)=C(C#N)C(=O)NC23CCCCC3)cc1 39.8 µM [inhibitor, single point]
O=C(CNCc1ccc(F)cc1)Nc1ccccc1[N+](=O)[O-] 39.8 µM [inhibitor, single point]
COc1cccc(C(=O)CN(C(=O)c2ccc(Cl)c(Cl)c2)N2C(=O)C3CCCCC3C2=O)c1 (stereo unspecified) 39.8 µM [inhibitor, single point]
Nc1nc(-c2ccc(-c3ccccc3)cc2)cs1 28.2 µM [inhibitor, partial curve]
COc1ccccc1OCC(=O)Nc1sc2c(c1C(=O)NCC1CCCO1)CCC2 (stereo unspecified) 31.6 µM [inhibitor, single point]
O=C(C1CCC1)N1CCc2cc(S(=O)(=O)NCC3COc4ccccc4O3)ccc21 (stereo unspecified) 17.8 µM [inhibitor, single point]
CCSc1nc(-c2ccco2)ccc1C#N 25.1 µM [inhibitor, partial curve]
CC1CN(C(=S)Nc2ccccc2)N(c2ccccc2)C1 (stereo unspecified) 35.5 µM [inhibitor, single point]
CCCc1cc(=O)n2[nH]c(-c3ccc(OC)cc3)nc2n1 31.6 µM [inhibitor, single point]
COc1ccc(N2CCN(C(=O)c3ccc(Cn4c(=S)[nH]c5ccc(N6CCOCC6)cc5c4=O)cc3)CC2)cc1 39.8 µM [inhibitor, single point]
Cc1ccc(NC(=O)c2ccc(NCc3ccc(F)cc3)nc2)cc1 8.91 µM [inhibitor, single point]
CN(C)CCCNC(=O)c1ccc(-c2nc(-c3ccc(Cl)cc3)cs2)cc1 35.5 µM [inhibitor, single point]
Cc1oc(-c2cccs2)nc1CN1CCN(C(C)C)C(CCO)C1 (stereo unspecified) 39.8 µM [inhibitor, single point]
COc1ccccc1N1CC(C(=O)Nc2nnc(SCc3ccccn3)s2)CC1=O (stereo unspecified) 35.5 µM [inhibitor, single point]

activity, negative = inhibition, inactive:
c1ccc(-c2nnc(CSc3nc4ccccc4[nH]3)o2)cc1 -8.31%
CCN(CC)c1ccc(NC(=O)CN2CCN(CC(=O)Nc3ccc(F)cc3)CC2)cc1 -6.25%
CCc1c(C)nc(N)n2c(SCC(=O)Nc3ccccc3)nnc12 7.83%
CC(C)CCN1CCN(Cc2cccc(C(F)(F)F)c2)CC1CCO (stereo unspecified) 4.87%
CC(=O)OCC(OC(C)=O)C(OC(C)=O)C(OC(C)=O)C(=O)Nc1ccccc1 (stereo unspecified) 9.45%
O=[N+]([O-])c1ccc(-c2nc3ccc([N+](=O)[O-])cc3[nH]2)cc1 9.62%
CC(O)CCC(=O)NNC(=S)Nc1ccccc1 (stereo unspecified) -4.61%
CC1(C)CC2c3cccc(C(=O)O)c3C(=O)N2c2c1ccc1ccccc21 (stereo unspecified) -3.27%
Cc1ccc(N=C2CSC(=O)N2)cc1 6.04%
O=C(Nc1ccc(OC(F)(F)F)cc1)Nc1cccnc1 8.39%
CN1/C(=C/C=N/NC(=O)c2ccc([N+](=O)[O-])cc2)C(C)(C)c2ccccc21 -7.85%
O=C(COc1ccccc1F)c1ccc(O)cc1O 7.08%
